Measurements taken from PubChem BioAssay AID1346428 (National Center for Advancing Translational Sciences (NCATS), 2018).
Several values for one entry are separate records, joined by “and”; a condition that tells them apart may be missing. Equal entries are not always repeated. Among all 48,000 compounds or so, about 1,200 (2.5%) were called active. Another 2% or so got no clear call; they are omitted.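 Rule for the calls: active = activation of at least 60% and not above a set upper limit (about 1 call in 100 departs from these limits); inconclusive = activation of 40% to 60%, or above that upper limit; inactive = activation under 40%.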 The list shows a part of the results.

Each compound was assayed against Probable G-protein coupled receptor 32 (Homo sapiens) (UniProt O75388) (assay: qHTS for Agonists of Human Resolvin D1 Receptor DRV1). Conditions: CHO-K1 GPR32 beta-arrestin PathHunter luminescence, 90 min; at 76.9 µM; active compounds read high; zero percent set by DMSO-only wells.
How it was run: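 Beta-arrestin recruitment read-out: luminescence from complemented beta-Gal in CHO-K1 GPR32 PathHunter cells, measured 1 h after detection reagent at ambient temperature following 90 min compound exposure at 37 °C; DMSO served as basal (EC0) control.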
Note: 0% is about no effect.

Sequence of UniProt O75388 (O75388 whole entry, looked up): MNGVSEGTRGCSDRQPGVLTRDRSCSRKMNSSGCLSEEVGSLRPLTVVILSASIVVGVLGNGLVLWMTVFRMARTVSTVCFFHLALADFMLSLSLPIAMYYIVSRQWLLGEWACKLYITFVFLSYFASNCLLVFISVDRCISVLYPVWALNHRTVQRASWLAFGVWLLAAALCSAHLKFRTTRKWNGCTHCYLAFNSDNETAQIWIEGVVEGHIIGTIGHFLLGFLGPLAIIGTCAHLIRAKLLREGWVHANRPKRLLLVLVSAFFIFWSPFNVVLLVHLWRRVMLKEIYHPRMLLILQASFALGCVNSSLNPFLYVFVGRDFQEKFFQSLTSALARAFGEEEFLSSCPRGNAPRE

| SMILES | activation |
| --- | --- |
| COC(=O)CSc1nc2sc3c(c2c(=O)n1Cc1ccccc1)CCC(C(C)(C)C)C3 (stereo not drawn) | inactive: -19.6% |
| COc1cc(C(=O)OCCCN2CCCN(CCCOC(=O)c3cc(OC)c(OC)c(OC)c3)CC2)cc(OC)c1OC | inactive: 38.1% and inactive: -9.64% |
| COc1ccccc1C(=O)N1c2ccccc2C(C)(c2ccc(Cl)cc2)CC1(C)C (stereo not drawn) | inactive: -23.7% |
| COC(=O)C1=C(C)NC(C)=C([N+](=O)[O-])C1c1ccccc1C(F)(F)F (stereo not drawn) | inactive: -11.7% |
| CCN(Cc1ccccc1)C(=O)CN1C(=O)CSc2ccc(S(=O)(=O)N(CC)CC)cc21 | inactive: -38.8% |
| COc1ccc(-c2c3c(nc4sc(C(=O)Nc5ccccc5F)c(N)c24)CC(C)(C)CC3=O)cc1 | inactive: 9.11% |
| CCc1ccc(CNC(=O)c2nn(-c3ccc(OC)c(Cl)c3)c(=O)c3c2c2ccccc2n3C)cc1 | inactive: 1.71% |
| CCOc1ccccc1NC(=O)CN1C(=O)COc2ccc(S(=O)(=O)Nc3ccccc3)cc21 | inactive: -7.41% |
| COc1ccc(-c2nn(CC(=O)NCc3ccccc3)c3c2cnc2ccc(F)cc23)cc1 | inactive: -5.71% |
| Cc1ccc(-c2nc3nc(C)cc(N4CCN(c5cccc(C)c5)C(C)C4)n3n2)cc1 (stereo not drawn) | inactive: -1.77% |
| O=C(Cn1c(=O)nc(-c2ccccc2F)c2cc(Cl)ccc21)Nc1ccccc1C(F)(F)F | inactive: -15.9% |
| CCCCN(C)CCCNC(=O)CN1C(=O)CSc2ccc(S(=O)(=O)N3CCOCC3)cc21 | inactive: -10.6% |
| CCCCNC(=O)Cn1ncc2c(C)n(Cc3cccc(Cl)c3)c(C)c2c1=O | inactive: 5.32% |
| O=C(NCc1cccs1)c1nn(-c2ccccc2F)nc1CO | inactive: -9.64% |
| COc1cc2oc(=O)c(CC(=O)NCCc3ccccc3F)c(C)c2cc1OC | active: 77% |
| Cc1ccc(NC(=O)C2CCCN(S(=O)(=O)c3ccc4[nH]c(=O)ccc4c3)C2)cc1C (stereo not drawn) | inactive: -8.52% |
| CCc1nn(CC(=O)N2CCN(c3cc(C)ccc3C)CC2)c(=O)c2cc3occc3n12 | inactive: 7.98% |
| CC1=C(c2ccc(C)c(C)c2)S(=O)(=O)N=C1N1CCC(C(=O)Nc2ccc(Cl)cc2)CC1 | inactive: 16.2% |
| O=S(=O)(Nc1ccc(-c2ccc(N3CCCCCC3)nn2)cc1)c1cccc(C(F)(F)F)c1 | inactive: -24.4% |
| COc1ccc(CCNc2nc(SCc3ccc(F)cc3)nc3ccccc23)cc1OC | inactive: -21.4% |
| N#Cc1ccc(NC(=O)c2cc(-c3cccc(Cl)c3)on2)cc1 | inactive: -2% |

| SMILES | activation |
| --- | --- |
| CCc1ccc(-c2nc(SCC(=O)NCC3CCCO3)c(-c3ccc(F)cc3)[nH]2)cc1 (stereo not drawn) | inactive: -17.1% |
| CNC(=O)c1ccc(CSc2nc3cccnc3n2Cc2cccc(F)c2)cc1 | inactive: 18.6% |
| Fc1ccccc1N1CCN(c2ncc3c(n2)CCN(Cc2ccc(Br)s2)C3)CC1 | inactive: -9.67% |
| Cc1ccc(C)c(NC(=O)N2CCc3cc(S(=O)(=O)N4CCC(C)CC4)ccc32)c1 | inactive: -25% |
| Cc1ccc2nc(-c3cccc(Cl)c3)c(Nc3ccc4c(c3)OCO4)n2c1 | inactive: -0.632% |
| C=CCc1ccccc1OCCn1c(C2CC(=O)N(Cc3ccc(F)cc3)C2)nc2ccccc21 (stereo not drawn) | inactive: -24.1% |
| CC(Oc1ccccc1)C(=O)OCc1cc(=O)n2nc(C(C)C)sc2n1 (stereo not drawn) | inactive: 11.2% |
| COc1ccccc1CCNC(=O)C(=O)NCC(c1cccs1)S(=O)(=O)c1ccc(F)cc1 (stereo not drawn) | inactive: -1.89% |
| O=C(Nc1cccc(-c2nc3ccccc3[nH]2)c1)c1ccccc1F | inactive: 4.18% |
| Cc1ccsc1CN(C(=O)c1ccc(Br)cc1)C1CCS(=O)(=O)C1 (stereo not drawn) | inactive: -12.6% |
| Cc1ccc(NC(=O)N2CCN3CCCCC3C2)cc1F (stereo not drawn) | inactive: 4.89% |
| COc1ccccc1CNC(=O)c1ccc2c(c1)nnn2C1CCCC1 | inactive: -9.96% |
| CCc1ccc(S(=O)(=O)c2nnn3c2nc(NCc2cccc(OC)c2)c2cc(Cl)ccc23)cc1 | inactive: -6.82% |
| COc1ccc(Cl)cc1NC(=O)C1CCN(S(=O)(=O)c2ccc3c(c2)CCCN3C(=O)C2CCC2)CC1 | inactive: -7.2% |
| Cc1cc(=O)[nH]c2nnc(SCC(=O)Nc3ccc(F)cc3F)n12 | inactive: 13.9% |
| COc1ccccc1NC(=O)Cn1cc(C(=O)c2ccncc2)c(=O)c2cc(C)ccc21 | inactive: -10.6% |
| COc1ccc2c(c1)CCC1C2CC[C@@]2(C)C1CC[C@@H]2NCCCCCCN1C(=O)CCC1=O (stereo partly drawn) | inactive: -2.22% |
| CC(=O)N1CCN(c2nc3c(C)ccc(Cl)c3s2)CC1 | inactive: 48.6% |
| CC(=O)c1cccc(NC(=O)Cn2c(=O)oc3cc(S(=O)(=O)NC4CCCC4)ccc32)c1 | inactive: 30.4% |
| CC(=O)c1ccc(Nc2nc3ccccc3nc2-n2nc(C)cc2C)cc1 | inactive: -13.7% |
| Cc1ccc(C)c(Cn2c3ccccc3c3cnn(CC(=O)NCC(C)c4ccccc4)c(=O)c32)c1 (stereo not drawn) | inactive: -12.9% |

| SMILES | activation |
| --- | --- |
| COc1cccc(NC(=O)CSc2nccn2Cc2ccc3c(c2)OCO3)c1 | active: 74.7% |
| Cc1nc(-n2nc(C)c(Cc3ccc(Cl)cc3)c2C)sc1C(=O)N1CCCCC1C (stereo not drawn) | inactive: -4.48% |
| O=C(CSCc1ccccc1Cl)NCc1ccc(Cl)c(Cl)c1 | inactive: -17.9% |
| CCOc1ccccc1Nc1nc(-c2ccc(C)cc2)c(CC(=O)O)s1 | inactive: -32.4% |
| O=c1[nH]c2ccc(NCc3ccc(-c4ccc(Cl)cc4)o3)cc2[nH]1 | inactive: -7.4% |
| COc1ccc(OC)c(NC(=O)C(C)n2nc(C)c3c(C)n(-c4ccccc4)nc3c2=O)c1 (stereo not drawn) | inactive: -11.1% |
| COc1ccc(C2c3c(oc4ccc(Cl)cc4c3=O)C(=O)N2CCCN(C)C)cc1OC (stereo not drawn) | inactive: -21.5% |
| COc1cccc(CNC(=O)CN2C(=O)N(c3c(C)cccc3C)S(=O)(=O)c3ccccc32)c1OC | inactive: -8.02% |
| COc1ccc(CN(C(=O)Nc2cccc(OC)c2)C2CCN(C(C)=O)CC2)cc1 | inactive: -19.5% |
| Cc1ccc(NC(=O)CN2C(=O)CC(c3ccc(F)cc3)=Nc3ccccc32)cc1F | inactive: -9.67% |
| CC[N+](C)(CC)CCOC(=O)C(O)(c1ccccc1)C1CCCCC1 (stereo not drawn) | inactive: -14.6% |
| COc1ccc(/C=C\c2onc(C)c2S(=O)(=O)N2CCC(C(=O)Nc3cccc(C)c3C)CC2)cc1 | inactive: -20% |
| CCOc1ccc(NC(=O)Cn2nnc(C(=O)NCc3cccs3)c2N)cc1 | inactive: -0.633% |
| Cc1cccc(C)c1NC(=O)CCS(=O)(=O)c1ccc2c(c1)CC(C)N2C(=O)C1CC1 (stereo not drawn) | inactive: -5.16% |
| COc1cccc(C(=O)Nc2nc3nc(C)c(C)c(=O)n3[nH]2)c1 | inactive: 23.2% |
| CCn1cc(C(=O)N2CCN(c3ccccc3)CC2)c(=O)c2cc(S(=O)(=O)N3CCCC3)ccc21 | inactive: -6.33% |
| CCNC(=O)c1c(NC(=O)Cc2coc3cc(C)ccc23)sc2c1CCCC2 | inactive: -23.7% |
| CCn1c(C(=O)NCc2ccc(OC)cc2)cc2sc(Cl)cc21 | inactive: -18.8% |
| Cc1ccc(Nc2ncnc3onc(C)c23)cc1Cl | inactive: 2.3% |
| O=C(Nc1c(O)c2ccccc2oc1=O)c1cccc(F)c1 | inactive: -6.71% |
| CCc1ccccc1NC(=O)Cc1cn(C)c2ccccc12 | inactive: 18.6% |

| SMILES | activation |
| --- | --- |
| CCOc1ccc(S(=O)(=O)Nc2cccc(C)c2)c2cccnc12 | inactive: 15.6% |
| COc1cc(Cl)c(C)cc1NC(=O)c1ccc(CN2C(=O)CCn3nc(C)cc32)cc1 | inactive: -21.8% |
| Cc1cc(C)cc(NC(=O)c2ccc3c(O)c(S(=O)(=O)c4ccccc4)c(=O)[nH]c3c2)c1 | inactive: -2.18% |
| Cc1ccc(OCC(=O)N(Cc2ccco2)c2ccccn2)cc1 | inactive: -14.5% |
| CCNC(=O)C1CCCN(c2nnc(C)c3c(C)n(-c4ccc(C)cc4)nc23)C1 (stereo not drawn) | inactive: 5.45% |
| CCOC(=O)c1[nH]c(C)c(CCC(=O)NCc2cccc(C)c2)c1C | inactive: -12.9% |
| CCOC(=O)c1c(C)[nH]c(C)c1S(=O)(=O)N1CCCC(C(=O)Nc2ccc(C)c(N(C)C)c2)C1 (stereo not drawn) | inactive: -11.2% |
| COC(=O)c1ccccc1NC(=O)C1(c2cccs2)CCOCC1 | inactive: -0.0755% |
| CCC1(c2cnc[nH]2)Cc2ccccc2C1 | inactive: -3.67% |
| CCCCOC(=O)c1ccc(NC(=O)Cc2coc3c(C)c(C)ccc23)cc1 | inactive: -29.4% |
| Cc1cccc(CNC(=O)CN2C(=O)C3CCCCN3c3ccc(C(=O)N4CCCC4)cc32)c1 (stereo not drawn) | inactive: -25.2% |
| CCC(=O)N1CCc2cc(CNC(=O)Nc3cc(C)ccc3C)ccc21 | inactive: -11.4% |
| Oc1c(C(c2ccccc2Cl)N2CCOCC2)sc2nc(-c3ccco3)nn12 (stereo not drawn) | inactive: -11.9% |
| Cc1ccc(C(=O)N2CCN(c3ccc(F)cc3)CC2)cc1NC(=O)c1nsc2ccccc12 | inactive: -17.6% |
| COc1ccc(CCNS(=O)(=O)c2ccc(F)c(C(=O)Nc3ccc(Cl)cc3)c2)cc1OC | active: 63.6% |
| Cc1ccc(-c2nnc(Nc3ccc(Cl)c(Cl)c3)c3ccccc23)cc1S(=O)(=O)N(C)C | inactive: 2.21% |
| CCOC(=O)c1cccc(Nc2nc(C(=O)OCC)nc3ccccc23)c1 | inactive: -9.47% |
| CCCCCn1c(=O)[nH]c2cc(C(=O)N3CCN(c4ccccc4F)CC3)ccc2c1=O | inactive: -8.99% |
| Cc1ccc(-n2ncc3c(NCCCn4ccnc4)ncnc32)cc1 | inactive: 34.7% |
| CCOC(=O)c1[nH]c2ccccc2c1NC(=O)c1ccc(OCC)cc1 | inactive: 26% |
